# “And” between values parts separate entries of the source, which are not always exact repeats. Equal entries are not always repeated. In all, about 420,000 compounds went through this assay and about 64,000 (15%) were called active. Inconclusive means that the source gave no clear call. Such entries were picked first, then a sample of the others. The call rests on the fitted dose curve; in most records, active means well fitted inhibition curve with a large enough effect; inconclusive means small, poorly fitted or top-dose-only effect; inactive means flat fitted curve, though single readings scatter. Where the call is inconclusive, the potency comes from a doubtful curve fit.
# Assay: qHTS for Inhibitors of human tyrosyl-DNA phosphodiesterase 1 (TDP1): qHTS in cells in absence of CPT; further: nearly all actives have a fitted effect of over 55% in size
# Details: DT40 Tdp1-/- hTDP1 cells, no CPT, ATP luminescence, 48 h; activity change, negative = growth inhibition: at 46.2 µM (top of the series)
# How it was run: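 A cellular qHTS used chicken DT40 cells lacking endogenous Tdp1 but carrying stably transfected human TDP1. Compounds were applied without camptothecin, and cell growth kinetics were judged by ATP-dependent luminescence after ≥48 hr.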
# On the % scale 0 is the no-effect control and ±100 the full control effect; potency means the concentration at half of the fitted maximal effect; tags describe the fitted curve by direction and shape.
Compound,Potency,"activity change, negative = growth inhibition"
O=C(NCc1ccccn1)c1nc(-c2ccc(C(F)(F)F)cc2)no1,"inconclusive: 11.6 µM [inhibitor, partial curve, poor fit]",–
COC(=O)c1ccc(CSc2nc3ccccc3c(=O)n2C)o1,"inconclusive: 32.6 µM [inhibitor, single point]",–
CC(C)c1ccc(NC(=O)CN2C(=O)C3(SCC(=O)N3c3ccc(F)cc3)c3ccccc32)cc1 (stereo unspecified),"inconclusive: 25.9 µM [inhibitor, single point]",–
CN(C)CCCN(C(=O)c1ccc2c(c1)CCCC2)c1nc2cc3c(cc2s1)OCO3,"inconclusive: 29.1 µM [inhibitor, single point]",–
COc1ccc(CC(=O)Oc2cc(C)[nH]c(=O)c2[N+](=O)[O-])cc1,inactive,–
O=C(CSc1n[nH]c(-c2ccncc2)n1)NCCc1ccccc1,"inconclusive: 10.3 µM [inhibitor, partial curve, poor fit]",–
Cc1ccc(N2CCn3c2nc2c3c(=O)n(Cc3cccc(Cl)c3)c(=O)n2C)cc1C,inactive,–
Cc1cccc(C(=O)N[C@H]2CC[C@@H](n3cc(C(=O)N4CCCC4)nn3)CC2)c1,inactive,–
Cc1ccc(S(=O)(=O)N2C[C@@H]3[C@H]4CC[C@H](C4)[C@@H]3[C@@H](C)[C@H]2C#N)cc1,"inconclusive: 29.1 µM [inhibitor, single point]",–
Cc1ccc(C(=O)NCc2ccc(Cl)cc2)cc1S(=O)(=O)N1CCCCC1,"inconclusive: 18.4 µM [inhibitor, single point]",–
COc1ccc(-c2ccc(OC)c([C@H]3[C@H]4C=CC[C@@H](C)[C@@H]4C(=O)N3Cc3ccccc3)c2)cc1OC,active: 16.4 µM,–
CCC(CC)C(=O)Nc1cccc(C(=O)Nc2ccc(OC)cc2[N+](=O)[O-])c1,inactive,–
CCCOc1ccc(CC2C(=O)Nc3ccc(Br)cc32)cc1 (stereo unspecified),active: 18.4 µM,–
Cc1ccc(-n2ncc3c2CC(C)(C)CC3NC(=O)c2ccc[n+]([O-])c2)cc1 (stereo unspecified),"inconclusive: 23.1 µM [inhibitor, single point]",–
CCC(C)Sc1cccc(-c2nc3ccc(C)cn3c2NCc2ccccc2)c1 (stereo unspecified),active: 20.6 µM,–
COc1cccc(OC)c1OC(=O)c1ccccc1,inactive,–
CC(C)CC(NC(=O)c1ccc(Cl)cc1)C(=O)OCC(=O)c1ccc2c(c1)NC(=O)CO2 (stereo unspecified),active: 11.6 µM,–
O=C(CN1C(=O)CCSc2ccc(S(=O)(=O)N3CCCC3)cc21)Nc1ccccc1Cl,"inconclusive: 23.1 µM [inhibitor, single point]",–
CN1C[C@@H]2C(c3ccc(C(F)(F)F)cc3)C3(c4ccccc4)CC2(C3)[C@H]1c1ccccc1 (stereo partly specified),active: 16.4 µM,–
CCCC12CN3CC(CCC)(CN(C1)C3c1c[nH]c3ccc(OC)cc13)C2=O (stereo unspecified),active: 10.3 µM,–
COc1ccc(C(=O)NC2CC2)cc1OC1CCN(Cc2cc(C)cc(C)c2)CC1,"inconclusive: 25.9 µM [inhibitor, single point]",–
Cc1ccc(O)c(NC(=O)c2noc3c2CCc2ccccc2-3)c1,"inconclusive: 16.4 µM [inhibitor, single point]",–
Cc1csc(NC(=O)CSc2nc3ccccc3c3c2CCCC3)n1,"inconclusive: 20.6 µM [inhibitor, single point]",–
CCSc1n[nH]c(=S)s1,inactive,–

Compound,Potency,"activity change, negative = growth inhibition"
CC(C(=O)NCc1ccccc1)n1ccc2cc(S(=O)(=O)N3CCCC3)ccc21 (stereo unspecified),active: 18.4 µM,–
CCOc1ccccc1CNC(=O)CCc1cn(C)c2ccccc12,"inconclusive: 25.9 µM [inhibitor, single point] and inconclusive: 29.1 µM [inhibitor, single point]",–
CC1(C(=O)NS(=O)(=O)C2CC2)CCCN(C(=O)c2ccco2)C1 (stereo unspecified),active: 11.6 µM,–
Cc1onc(-c2c(Cl)cccc2Cl)c1C(=O)N1CCc2ccccc2C1,"inconclusive: 29.1 µM [inhibitor, single point]",–
Cc1nc(CC(=O)Nc2ccc(C(N)=O)cc2)cs1,inactive,–
CCCCn1c(SC(C)C(=O)NCC2CCCO2)nc2cc(C(=O)OC)ccc2c1=O (stereo unspecified),"inconclusive: 20.6 µM [inhibitor, single point]",–
O=C(Cn1cnc2ccccc21)NCc1ccccc1,"inconclusive: 25.1 µM [inhibitor, single point]",–
CN1CCN(NC(=O)Nc2ccc(Br)cc2)CC1,inactive,–
Cc1sc2nc(SCC(=O)NCCOCCO)n(C)c(=O)c2c1C,inactive,–
COCCN1C(=O)CN(S(C)(=O)=O)CC1(C)C(=O)Nc1c(C)cccc1C (stereo unspecified),inactive,–
CCSC1=NC2(CCN(C(=O)NC3CCCCC3)CC2)N=C1c1ccc(OC)cc1,"inconclusive: 18.4 µM [inhibitor, single point]",–
CC(=O)c1c(C)[nH]c(C(=O)OCC(=O)NCC(C)C)c1C,"inconclusive: 23.1 µM [inhibitor, single point]",–
Cc1cccc(C(=O)NCC(=O)NC2CCN(Cc3ccccc3)CC2)c1,inactive,–
Cc1cccc(NC(=S)NC2CCCC2)c1C,inactive,–
Cc1ccc(C(=O)CC2(O)C(=O)N(CCc3ccccc3)c3ccc(Br)cc32)cc1 (stereo unspecified),active: 16.4 µM,–
CC(=O)c1ccc(NC(=O)CN2CCC(C(=O)c3ccc(F)cc3)CC2)cc1,"inconclusive: 29.1 µM [inhibitor, single point]",–
O=C(NC1CCCC1)C(c1ccncc1)N(C(=O)Cc1cccs1)c1ccc(F)cc1 (stereo unspecified),"inconclusive: 14.6 µM [inhibitor, partial curve]",–
CCN(CC(=O)NCc1cccs1)C(=O)CCCOc1ccc(C(C)(C)C)cc1,"inconclusive: 16.4 µM [inhibitor, single point]",–
COc1cc(C)ccc1OCc1cc(C(=O)N(Cc2c(C)nn(C)c2C)C2CC2)no1,active: 16.4 µM,–
Cc1nc(-c2ccccn2)nc(SCC(=O)c2ccccc2)c1Cl,"inconclusive: 18.4 µM [inhibitor, single point]",–
CCc1c(C)sc(NC(=O)/C=C/c2ccc3c(c2)OCO3)c1C(=O)OC,inactive,–
Cc1ccccc1N=C1c2cc([N+](=O)[O-])ccc2-c2ncccc21,"inconclusive: 23.1 µM [inhibitor, single point]",–
O=C(CC12CC3CC(CC(C3)C1)C2)N1CCCC1,"inconclusive: 13 µM [inhibitor, partial curve]",–
COc1ccccc1C(=O)N/C(=C/c1ccc(Br)cc1)C(=O)N1CCOCC1,"inconclusive: 29.1 µM [inhibitor, single point]",–

Compound,Potency,"activity change, negative = growth inhibition"
COc1ccccc1CC(=O)Nc1ccc2c(C)cc(=O)oc2c1,"inconclusive: 16.4 µM [inhibitor, partial curve]",–
Cn1nc(C(=O)NNC(=O)C(CCC(N)=O)NS(=O)(=O)c2ccc(Cl)cc2)c2ccccc2c1=O (stereo unspecified),inactive,–
COC(=O)C1=C(C)Nc2sc(C(N)=O)c(N)c2C1c1ccncc1 (stereo unspecified),"inconclusive: 29.1 µM [inhibitor, single point]",–
CCOC(=O)c1ccc(NC(=O)CSc2nc3c(c(=O)n2-c2ccccc2OC)SCC3)cc1,active: 11.6 µM,–
COc1ccc(-c2cc(=O)oc3c(C)c(OCC(=O)N(C)C)ccc23)cc1,"inconclusive: 20.6 µM [inhibitor, partial curve, poor fit]",–
O=C(c1ccc(OC2CCN(CCCc3ccccc3)CC2)cc1)N1CCCC1,inactive,–
O=c1nc(/C=C/c2ccc(O)c(O)c2)oc2ccccc12,inactive,–
O=C(Nc1cccc(O)c1)c1ccc([N+](=O)[O-])cc1Cl,"inconclusive: 11.6 µM [inhibitor, partial curve]",–
O=C1CSc2ccc(C(=O)NCC(c3ccco3)N3CCCCC3)cc2N1 (stereo unspecified),inactive,–
C=CCn1c(SCC(=O)N2CCCCCC2)nc2ccccc2c1=O,"inconclusive: 29.1 µM [inhibitor, single point]",–
COCCNC(=O)/C(C#N)=C/c1cc(C)n(C2CCCCC2)c1C,active: 16.4 µM,–
CCOc1ccccc1C(=O)N(Cc1ccccc1)Cc1cc2cc3c(cc2[nH]c1=O)OCCO3,active: 23.1 µM,–
COc1cc(/C=C(/C#N)c2ccccc2F)ccc1OCc1ccccc1,active: 18.4 µM,–
COC(=O)c1ccccc1NC(=O)CN(c1ccc(OC)cc1)S(C)(=O)=O,"inconclusive: 32.6 µM [inhibitor, single point]",–
COc1ccc(NC(=O)Cn2c(=O)n(Cc3ccccc3Cl)c(=O)c3cc(OC)c(OC)cc32)cc1,"inconclusive: 1.84 µM [inhibitor, full curve]",–
CC(=O)Nc1ccc(Oc2ccc([N+](=O)[O-])cc2Cl)cc1,"inconclusive: 13 µM [inhibitor, partial curve, poor fit]",–
COc1cc(CCC(=O)OCC(=O)N2CCc3ccccc32)cc(OC)c1OC,inactive,–
O=C(Nc1nc2ccc(S(=O)(=O)N3CCCCC3)cc2s1)C1CCCO1 (stereo unspecified),"inconclusive: 29.1 µM [inhibitor, single point]",–
Cc1ccc2oc(=O)c3cnn(CC(=O)N4CCc5ccccc5C4)c3c2c1,"inconclusive: 20.6 µM [inhibitor, partial curve, poor fit]",–
CS(=O)(=O)c1cnc(-c2ccccc2)nc1-c1ccc(Cl)c(Cl)c1,–,inconclusive: -32% [inhibitor]
CCOc1ccccc1N(C(=O)c1ccco1)C(C(=O)NC1CCCC1)c1cccs1 (stereo unspecified),"inconclusive: 14.6 µM [inhibitor, partial curve, poor fit]",–
COc1ccc(NC(=O)CC2C(=O)N(C)C(=S)N2Cc2cccs2)cc1 (stereo unspecified),inactive,–
CC(C)[C@H](NC(=O)N1CCn2c1nc1ccccc12)C(=O)NCc1ccccc1Cl,"inconclusive: 18.4 µM [inhibitor, single point]",–
